# Results reported in the RNAGym collection of RNA variant scans (doi:10.7554/elife.90254).
# The source gives no read counts; variants with many changes may rest on few reads.
# B1: OR4K15 (parent)
# chain: GUUAACGGUCAUAGGCCAUGGAAACUAGGAGCACCAUUUCGCUGCCAGUGAAGAAAUGAACAAAGAAAAUCUGGGCCAGGCAGGCAUCAAAAGAAAUAGUCUUGCGCUCAACCAGAAAGUCUGUAAUCAUUUUAAGGGUA
# Variants of: B1
# Assay: self-cleavage, relative activity (ratio to wild type); higher = more cleavage; in vitro, sequencing; the parent is a self-cleaving ribozyme
row,Variant,self-cleavage
1,U26C A55G A78G A90G,0.28
2,A52U A118G U122C,0.55
3,A11G U38C U108C,0.06
4,A51G A91G A126G U131C,0.98
5,A36U U122C A126U,1.36
6,U26C G31A A56G G80U A86G,0.2
7,U37C A51U A60G,1.68
8,U49C U70C G84A A114G,0.08
9,C40G G74A U87C U102C U120C,0.1
10,A33C A60G U102C A118G,1.18
11,A78U A89G A134G,0.31
12,U9A A22C A52G A59G U122C,0.03
13,U38C A63G U100C A126G U127C A140U,1.7
14,A5G U72C U108C,0.05
15,U19A A54G A91G U124C,1.19
16,U2C U9C A47G A62G,1.33
17,A51U U72A A118G,0.07
18,A5G G15A G41C A60G U72C A118G,0.19
19,A24G A62G A82G A116C A125G,0.01
20,U2A A56G U102C,1
21,A36U A52G A68U G83A U87C U127C U131C,0.4

row,Variant,self-cleavage
1,A33G A59G G74A,0.19
2,C6U A59G A117G,1.41
3,A30G A59G U132A,1.53
4,G15U A89U A118G,1.1
5,U12C A56G U139A,1.86
6,A47U A78U U100C,1.25
7,A30G U49C A64G U87C U97C A98G U108A A111U A135G,0
8,A5G A62G A96G,1.86
9,A5G A78U C105A,0.03
10,A55G A66G G83A U122C,1.6
11,A94G A117G U130C,1.46
12,A30G U37C A60G,1.85
13,G29A A59G A63G A64G,1.75
14,G28A A30G U37C U57A,1.03
15,U9A G73A A92G U120C,0.07
16,U57C A68G A118G U139C,0.63
17,U9C A78U G79U G136A,0.15
18,A52G A63G U72A,0.26
19,U2G U9A A62C A110G,0.37
20,U12C U100G U132C,1.28
21,C46U A55G U72A A86C A92G,0.14

row,Variant,self-cleavage
1,A23U A27G A47C U97C,0.97
2,A86U U100C U130C,1.81
3,G31C A66G C76G A82G U132C,0.06
4,A69G A82G U103C A135G,1.41
5,A36U U37C A63G U70C,0.65
6,U38C U70C A89G A92G A126G U131C,0.11
7,A11G U12C A22G A24C A69G A96G U100A,0.24
8,U2C A47G A55U U127C A129G,0.06
9,G48A A69G U70C A92G A126G A140G,0.2
10,A5G A24G U38C U87C,1.45
11,A36C U37C U49C A68G A116G,1.13
12,U37C A59G A69C,1.07
13,U19C A54G A134G,0.7
14,A11U A64G A89U A95G,2.29
15,A66G U70C U100A,0.22
16,A24G C34U A47U U132C,0.75
17,A51G A68G G123A U130C,1.28
18,U43A U49C U70A A92G,0.56
19,A5G A78U U122C,0.33
20,A55G U87C A118G U120C U139A,0.05
21,U2C A5G A118G,0.68

row,Variant,self-cleavage
1,A11G A92G A96C A118G,0.71
2,A63G A86G A116G,1.26
3,U87A U127A U131A A134G,2.15
4,A24G A47G A68G A89G U120C,0.75
5,U38G U49C U108A U122A,0.01
6,A11G A96G U102C U108C A116U U122A,0
7,U2C G15A U19C A23G U49C U87C,0.72
8,U122C A129G A140G,1.02
9,A64G A89G U120C,0.6
10,A24G A69G U87C U131C G138C,0.44
11,A24G U26A U39C A55G A117G,0.93
12,A55G A69G A92G A95U,1.29
13,A11U U38C A56G,1.18
14,A60G A63G A86G,1.42
15,U37C A67U U127A,2.73
16,A33G U43A U130C,0
17,A89U C105U A118G,0.07
18,A33G A125G U127C,0.03
19,A52G A89G A95G,2.72
20,U3A G7C A98G,0.64
